Source: the supplement of paper PMC10185492
This is one part of the list. These are enrichments in a pooled selection; single values are uncertain.

system: SARS-CoV-2 3CLpro (nsp5); assay: substrate phage enrichment score (protease-eluted vs HEPES control, +1 offset) (ratio); higher = better cleaved substrate; conditions: selection round: 3; protease elution time: 0.5 h
Experimental: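 Random heptapeptide substrate phage display (M13 pIII fusion, heptapeptide between an N-terminal biotinylated AviTag GLNDIFEAQKIEWHE and pIII; phages immobilised on streptavidin) eluted by cleavage with 50 nM protease in 20 mM HEPES at 37 °C. Selected phages were NGS sequenced, and the enrichment score is (reads in protease sample + 1)/(reads in HEPES blank-selection control + 1).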

Substance	substrate phage enrichment score
RCVDKPI	7
YCQGGSA	5
LESIPSR	1.21
IQPSWKS	7.38
SEGRNAA	> 23
AVKAKES	12
RNGLNVQ	6.17
TRGVPSK	3.14
SNAAAHH	0.48
GVRCTRT	> 33
KYITELQ	> 134
AVLQASG	23.5
SPHIGLC	5.5
SHCGTTT	> 27
YGYEHHG	> 35
LNAGDVK	0.846
ALEGQVK	> 55
PETVLMQ	> 21
AGSGEAG	2.18
EEVRHMP	> 22
AVEARNM	7.11
APLTGRC	> 25
ARGETTP	2.25
VSREILG	18.5
FHASKPR	> 39

Substance	substrate phage enrichment score
QAGPYGR	5.44
KSQLNID	11.7
MQQQPLG	0.136
SERFLHW	1.3
SQVILQA	37.3
VHLQARC	> 41
PPCVILQ	> 425
WQRVPSR	3.23
SSDCVIP	> 30
KRGTNLC	> 34
IRPSDAE	8
ERHIESH	3.8
LYFHGGS	2.42
FEAAHHH	1.05
TYTSEVQ	1.2
RPVVPEK	3.62
TRIPQPC	3.4
RFVEWRP	1.93
THWTGCW	2.1
ADSRKRP	> 51
RSYPKNP	> 40
RNFRSER	5.75
PPAAHHH	0.941
PASAHHH	15
YQKHGSR	> 35

Substance	substrate phage enrichment score
PAILQSG	> 27
ICIYDER	1.8
TWAAHHH	7.73
YEDWIRG	2.25
APVIHYD	5.25
KHYAKPV	2.4
TGIGATS	8.33
RATQSGR	10
AELQCNV	> 27
SPTDDLW	> 21
LICWCHR	13
VACLQAS	> 27
PKGDISR	1.82
HGRTPSD	0.235
YECTSKK	15.5
VHRSGPT	> 24
QKRTTLQ	> 336
LGPHIII	1.11
SRTPDEG	3.8
RHEATSD	3.5
RESRLQS	17
THTRGTS	> 23
CAAAHNH	1.06
HRTTPLQ	11.5
LCIPNLQ	> 31

Substance	substrate phage enrichment score
WHSTDKA	1.25
AAQIHTR	> 23
LSNYEDW	1.7
QRVPHLK	3.29
AQPVTSS	> 29
TEHHSTE	1.25
RDMNPKS	> 26
RVWKPHP	5
REPNFQG	2.62
QKYVLPT	3.33
FYGPKTV	1.38
SLAAHHH	2
SGRVKMT	11.8
PSAAAHH	0.696
LHVMLQC	> 22
PAAQDTR	2.25
ECCLQGG	> 21
RVELLEP	11.3
LESSGTQ	2.75
AHTEWRD	1.91
LLIRSCR	> 109
AYLQGGS	5.25
LYFQCGS	1.82
SNSCGSA	26.3
DPAAHHH	0.782

Substance	substrate phage enrichment score
HIYKLNS	1.5
CAAAHQQ	0.634
PALQSST	> 179
RHDTKPR	1.75
AKNSLWQ	> 25
ASALGCS	> 27
SAAARHH	1.39
PVSHAPQ	> 49
SATAHHH	1
PSSTTLQ	112
TTYEVPG	> 23
AWGDTSR	2.22
ASSGYPT	1.88
SPRAICQ	> 124
PSSHQKS	20
NESNVKI	1.5
LREVQAK	1.36
YADVNAW	> 28
SWEEKCG	1.4
RTRSCLQ	> 46
TDAAHHH	1.24
LRVETHD	7.09
AKYQPLR	20.5
SAAVHHH	1.11
EYFQGGS	0.833

Substance	substrate phage enrichment score
ARTGTPP	2.35
MRPAVKS	2.75
RKESSHP	3.6
VGQSYSP	> 29
PRAVLQC	> 51
LTGVNGA	0.762
NQCSHMT	> 28
DASTRLQ	> 46
KKSASLN	> 29
FTTNSAH	1.44
EVKATLH	7
VETPDSL	0.526
VKCSLCD	> 25
GDDKFRI	1.33
HLHCRRQ	> 25
TVERLPG	4.75
PTCKKKW	> 28
NTPSTKD	39.5
KHGNLSE	> 28
ESRARLQ	> 54
NRGAYHS	9.75
SMQCIGP	> 23
QAGALHD	0.684
CSGNKPP	4.8
HHHHGAA	0.786

Substance	substrate phage enrichment score
SRYQRSG	1.64
HALLQSG	> 57
SSQPCRQ	> 263
CCLLQSA	> 24
ATSAHHH	0.923
VEPPLNF	2.2
SPTPVLQ	> 45
NHFGELK	0.412
PTRWSAR	2.43
SEAKASA	2.11
PVTQAIP	> 43
AKGPLGT	3.6
RNRNNKN	13
CMAAHHH	1.04
CSKLRTH	4
VAAHHHH	0.817
THATGDV	4.5
TAQTNRL	0.636
TASGARG	46
VNEWRST	> 38
GTSTQLH	> 40
SETTILQ	> 29
YQAAHHH	0.464
RPTSKSP	> 24
GTAGCWR	1.5

Substance	substrate phage enrichment score
HCLLHAD	> 21
CILQGGS	> 33
SQDTWTG	3.38
DSIQLQS	5.57
MRPTKHT	7.14
ATRSRLQ	> 83
YGQRRPE	0.36
PNEDGCR	1.27
RLNHCGA	1.36
PSGGARQ	2.44
ARDSWAW	3.67
ITAAHHH	1.11
ENEIICF	3
PAQDCKR	11
AHFLGPQ	> 22
QYLQARG	> 24
SAAAQNH	1.32
CSPRLYR	1.11
YGDRDDS	> 26
TLRGTEG	> 34
YVHESSL	1.44
QGWRKPR	> 42
VWPHIII	1.2
STSAHHH	7.67
RVREAPQ	5.75

Substance	substrate phage enrichment score
TPYSKLQ	423
EEICRMQ	> 29
VVVRPHI	0.588
QLCMPGM	0.688
HRNSDLT	4.57
RAAETVP	0.833
ATNVILQ	> 85
AECGQAK	> 24
REVISDG	0.917
KHAEFTR	> 36
VGTWKGA	> 30
AAPWVPW	2.92
PLTKNCV	> 36
DPINQTT	1.1
LRSGTTI	6.6
APNECMS	18.5
GVLICRR	> 28
LGQTLYD	4.75
QSKAEYA	10.5
AQYFQGG	2.88
GPVRERP	8.43
RAAAHHH	1.11
AKRPQVP	0.111
EQKPTPC	> 21
RGDCARG	> 21

Substance	substrate phage enrichment score
PSHATHG	> 24
WCLPSLQ	> 23
CSLEGRT	> 25
SASAHHH	0.645
TGSCTLQ	> 36
SSPAAHH	1.2
CNHELTG	4.5
TATGTVG	0.333
QEAAHHH	0.75
RQSSRLS	2.73
TKNKEAG	2.45
NASAEMS	> 24
IITITGP	1.08
VYMESRQ	> 22
HSAAHHH	1.56
PLRCYLY	> 23
RATAHHH	2.1
IEATGVI	> 25
ISAAHHH	0.981
TQYFQGG	1
GRSANAP	0.25
SCAAHHH	3
AVQVSHP	1.8
SKTILLQ	> 60
RGRTILQ	> 222

Substance	substrate phage enrichment score
PLLQGMI	6.67
VRTGTKL	> 26
WAPTTPL	> 34
SNTRSPK	3.6
TTNNWKA	2.27
SQQNAPL	0.679
ARMPLMM	> 23
NLPVRLQ	> 95
EQQAQTT	1.75
LMRSTLQ	> 32
GQYFQGG	1.2
DQSTNLR	9.75
VCPQVKN	2.92
TRQRPAP	4.86
KSTAAHH	1.25
EGPSAMV	5.4
SCDEQHT	> 39
RNQTPET	> 40
SVSPESH	18.5
TKKCLLQ	> 22
ELVEDPV	1.15
QSPVRLQ	11.7
AAQLQGV	> 26
CRVSQPG	> 21
PYFQGGS	1.41

Substance	substrate phage enrichment score
SAAIGAK	3.17
MPSWSPS	> 24
PALLNSG	17.8
KGTLRPV	3.21
SDFQGGS	1.05
WPIFQVT	2.14
QSGDATD	10.2
KSQKFDV	3.57
VRPHIIN	1.28
EEADPER	0.0606
KSLAQCQ	6.29
EPGTAQH	3.12
SASTSNR	> 29
DVAAHHH	0.853
HGNEVSD	2.14
NFHPKLG	2.14
SAAAHPH	0.689
WSAAHHH	1.33
NNYSVQG	2.11
NDNPKNR	0.258
RSPSLLQ	> 65
PCTVTMQ	> 29
SHREEYQ	> 69
RKEVQMQ	43
IPIHCDR	4.09

Substance	substrate phage enrichment score
FSCLPGP	14.5
IETEDVT	> 78
KTKSECT	2.79
RNAAAHH	2
LKAAHHH	1.28
VSGAAPC	> 25
RLPFQGG	9.67
SSWPPEG	> 24
SAAAPQH	1.87
WQHHDGK	> 36
DRSRTES	1.25
PDFQGGS	0.939
SGSAILT	> 34
SCEVFRH	2.14
NDNWMPV	0.769
ARCSQTF	> 21
RNTCVLQ	> 68
KTTLQSN	244
ARGELDA	13.5
ERNGYRC	4.75
LVRPHII	1.2
KAHLKDS	1.88
VVNKTAD	1.44
NSAATLS	1.67
HYPLMKP	> 23

Substance	substrate phage enrichment score
LPRTHHS	0.976
CNFQGGS	1.5
QCPRPGQ	16.7
LTGVSDR	3.6
DESNDMI	1.5
RAYQLNA	23.5
VPTTTLQ	> 37
CSAHNMR	10.7
HHHGAAE	1.08
VGSAAAH	0.533
SHLSVLH	13.5
LGGSAAA	1.39
VTESAPW	3.93
AGAAHHH	0.533
RSLDLTA	6.55
SRLTSSG	16.7
KRCTKLQ	> 21
GPTDFDR	0.0606
PAHTDIR	7.67
GSAAAHH	0.827
CGKLGVY	2.54
GIPAVSQ	8.67
RNESLNP	> 30
CKHGSAR	3.83
EDCGSRS	4.8

Substance	substrate phage enrichment score
EIPVPST	> 24
REAEDRQ	2.25
SWTCHLQ	> 64
SMGSSGR	8.43
EKYGSPL	14.5
TESLRRR	4.6
RNEACTT	> 22
RQNEILR	> 33
SSNAAAH	2.67
VGAAHHH	0.643
FNEPGTP	23
EPWPAKM	0.8
HASEWVP	0.571
RKSAHHH	0.412
GRPHIII	1.44
WKEQSKK	11
RPEPTKQ	3.17
